# Patent US20040018193A1 (priority 2002, published 2004)
# Tested on: vaccinia virus
# Assay type: cell-based
substance,measurement,value
TNF-α,reduction in virus titers,approximately 50%
